Measurements taken from the supplement of paper PMC4967469.
The IC50 comes from the fitted curve, where viability falls to half of the control; fits outside the tested doses are given as limits. AUC sums up the same curve from the lowest dose to the 256-fold higher top dose; the more sensitive the line, the further below 1. For some of these results: Where the top dose is marked as inferred, it comes from the curve model; the source does not state it. For some of these results: An entry number marks a drug with two screens in the source, which often give different values.

Tests used:
Test in all cases: Viability of human cancer cell lines after 72 h of drug (GDSC screen)
Cyclopamine = compound: CC1=C2C[C@H]3[C@@H](CC=C4C[C@@H](O)CC[C@@]43C)[C@@H]2CC[C@]12O[C@@H]1C[C@H](C)CN[C@H]1[C@H]2C [Cyclopamine]; conditions: top dose 16 µM; top dose inferred
Procedure: (§1)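 Human cancer cell lines in 384-well plates, medium with 10% serum, drug for 72 h over a 256-fold dose range (nine 2-fold or five 4-fold steps up to the top dose). Adherent lines were fixed and stained with the nucleic acid dye Syto60, suspension lines read with resazurin; signal relative to control wells, capped at 0 and 100%. One two-parameter sigmoid per drug and line, fitted in a mixed model over all curves with the slope shared within a line.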

FTI-277 = compound: COC(=O)[C@H](CCSC)NC(=O)c1ccc(NC[C@@H](N)CS)cc1-c1ccccc1 [FTI-277]; conditions: top dose 1.024 µM; top dose inferred
Procedure: as §1

JNJ-26854165 = compound: c1ccc2c(CCNc3ccc(Nc4ccncc4)cc3)c[nH]c2c1 [JNJ-26854165]; conditions: top dose 10 µM
Procedure: as §1

SB-715992 = compound: Cc1ccc(C(=O)N(CCCN)[C@@H](c2nc3cc(Cl)ccc3c(=O)n2Cc2ccccc2)C(C)C)cc1 [SB-715992]; conditions: top dose 0.128 µM; top dose inferred
Procedure: as §1

Belinostat = compound: O=C(/C=C/c1cccc(S(=O)(=O)Nc2ccccc2)c1)NO [Belinostat]; conditions: top dose 20 µM; top dose inferred
Procedure: as §1

JNK Inhibitor VIII = compound: CCOc1nc(NC(=O)Cc2cc(OC)ccc2OC)cc(N)c1C#N [JNK Inhibitor VIII]; conditions: top dose 10 µM; top dose inferred
Procedure: as §1

Docetaxel = compound: CC(=O)O[C@@]12CO[C@@H]1C[C@H](O)[C@@]1(C)C(=O)[C@H](O)C3=C(C)[C@@H](OC(=O)[C@H](O)[C@@H](NC(=O)OC(C)(C)C)c4ccccc4)C[C@@](O)([C@@H](OC(=O)c4ccccc4)[C@H]21)C3(C)C [Docetaxel]; conditions: top dose 0.0125 µM
Procedure: as §1

AMG-706 = compound: CC1(C)CNc2cc(NC(=O)c3cccnc3NCc3ccncc3)ccc21 [AMG-706]; conditions: top dose 2 µM; top dose inferred
Procedure: as §1

CGP-60474 = compound: OCCCNc1cc(-c2ccnc(Nc3cccc(Cl)c3)n2)ccn1 [CGP-60474]; conditions: top dose 0.256 µM; top dose inferred
Procedure: as §1

NSC-207895 = compound: CN1CCN(c2ccc([N+](=O)[O-])c3no[n+]([O-])c23)CC1 [NSC-207895]; conditions: top dose 20 µM; top dose inferred
Procedure: as §1

NVP-TAE684 = compound: COc1cc(N2CCC(N3CCN(C)CC3)CC2)ccc1Nc1ncc(Cl)c(Nc2ccccc2S(=O)(=O)C(C)C)n1 [NVP-TAE684]; conditions: top dose 2 µM
Procedure: as §1

OSI-906 = compound: C[C@]1(O)C[C@@H](c2nc(-c3ccc4ccc(-c5ccccc5)nc4c3)c3c(N)nccn32)C1 [OSI-906]; conditions: top dose 2.56 µM; top dose inferred
Procedure: as §1

JQ1 = compound: Cc1sc2c(c1C)C(c1ccc(Cl)cc1)=N[C@@H](CC(=O)OC(C)(C)C)c1nnc(C)n1-2 [JQ1]
Procedure: as §1

YM155 = compound: COCC[n+]1c2c(n(Cc3cnccn3)c1C)C(=O)c1ccccc1C2=O [YM155]; conditions: top dose 5.12 µM
Procedure: as §1

[1] = top dose 1 µM, screen: GDSC drug entry 1218, top dose inferred
[2] = top dose 2.56 µM, screen: GDSC drug entry 163

Cell Line | AUC (Cyclopamine) | IC50 (Cyclopamine) [nM] | AUC (FTI-277) | IC50 (FTI-277) [nM] | AUC (JNJ-26854165) | IC50 (JNJ-26854165) [nM] | AUC (SB-715992) | IC50 (SB-715992) [nM] | AUC (Belinostat) | IC50 (Belinostat) [nM] | AUC (JNK Inhibitor VIII) | IC50 (JNK Inhibitor VIII) [nM] | AUC (Docetaxel) | IC50 (Docetaxel) [nM] | AUC (AMG-706) | IC50 (AMG-706) [nM] | AUC (CGP-60474) | IC50 (CGP-60474) [nM] | AUC (NSC-207895) | IC50 (NSC-207895) [nM] | AUC (NVP-TAE684) | IC50 (NVP-TAE684) [nM] | AUC (OSI-906) | IC50 (OSI-906) [nM] | AUC (JQ1; [1]) | IC50 (JQ1; [1]) [nM] | AUC (JQ1; [2]) | IC50 (JQ1; [2]) [nM] | AUC (YM155) | IC50 (YM155) [nM]
JJN-3 (haematopoietic neoplasm, suspension) | 0.99 | > 16000 | 0.991 | > 1020 | 0.916 | > 10000 | 0.69 | 24.3 | 0.231 | 249 | 0.993 | > 10000 | 0.783 | 4.31 | 0.981 | > 2000 | 0.681 | 46 | 0.952 | > 20000 | 0.817 | 873 | 0.936 | > 2560 | 0.991 | > 1000 | 0.628 | 336 | 0.017 | < 20
HC-1 (hairy cell leukaemia, suspension) | 0.933 | > 16000 | 0.981 | > 1020 | 0.871 | 8810 | 0.635 | 18.6 | 0.203 | 174 | 0.987 | > 10000 | 0.947 | > 12.5 | 0.987 | > 2000 | 0.635 | 37.1 | 0.828 | 11700 | 0.899 | > 2000 | 0.981 | > 2560 | 0.984 | > 1000 | 0.824 | 1450 | 0.023 | < 20
SUP-M2 (anaplastic large cell lymphoma, suspension) | 0.993 | > 16000 | 0.994 | > 1020 | 0.9 | 7420 | 0.567 | 11.6 | 0.162 | 170 | 0.989 | > 10000 | 0.753 | 3.33 | 0.994 | > 2000 | 0.479 | 14.2 | 0.841 | 9390 | 0.144 | 14.9 | 0.994 | > 2560 | 0.992 | > 1000 | 0.916 | 2200 | 0.012 | < 20
GI-ME-N (neuroblastoma, adherent) | 0.94 | > 16000 | 0.944 | > 1020 | 0.759 | 4720 | 0.616 | 18.7 | 0.316 | 314 | 0.977 | > 10000 | 0.717 | 4.07 | 0.962 | > 2000 | 0.708 | 77.2 | 0.936 | > 20000 | 0.763 | 979 | 0.761 | 1240 | 0.955 | > 1000 | 0.718 | 844 | 0.053 | < 20
MY-M12 (leukaemia, suspension) | 0.894 | > 16000 | 0.974 | > 1020 | 0.907 | > 10000 | 0.684 | 28.2 | 0.112 | < 78.1 | 0.98 | > 10000 | 0.937 | > 12.5 | 0.98 | > 2000 | 0.645 | 42.8 | 0.724 | 5950 | 0.979 | > 2000 | 0.92 | > 2560 |  |  | 0.676 | 530 | 0.028 | < 20
SK-MM-2 (myeloma, suspension) | 0.982 | > 16000 | 0.969 | > 1020 | 0.941 | > 10000 | 0.908 | > 128 | 0.579 | 2080 | 0.986 | > 10000 | 0.987 | > 12.5 | 0.987 | > 2000 | 0.777 | 108 | 0.956 | > 20000 | 0.712 | 513 | 0.732 | 758 | 0.986 | > 1000 | 0.529 | 193 | 0.542 | 419
ES6 (Ewing sarcoma, adherent) | 0.926 | > 16000 | 0.942 | > 1020 | 0.907 | > 10000 | 0.966 | > 128 | 0.516 | 1390 | 0.967 | > 10000 | 0.836 | 11.2 | 0.933 | > 2000 | 0.376 | 6.69 | 0.902 | > 20000 | 0.717 | 603 | 0.704 | 696 | 0.967 | > 1000 | 0.839 | 2380 | 0.128 | < 20
L-1236 (Hodgkin lymphoma, suspension) | 0.982 | > 16000 | 0.991 | > 1020 | 0.978 | > 10000 | 0.988 | > 128 | 0.262 | 300 | 0.992 | > 10000 | 0.724 | 2.99 | 0.992 | > 2000 | 0.789 | 94.6 | 0.972 | > 20000 | 0.94 | > 2000 | 0.992 | > 2560 | 0.869 | 689 | 0.865 | 1700 | 0.08 | < 20
